“And” between values parts separate entries of the source, which are not always exact repeats. Equal entries are not always repeated. Structures can show the parent of a compound that is named as a salt. ± gives the standard deviation of the averaged measurements. The full ranking holds about 1,900 compounds; the median of “normalised cell viability (NPI; 0 = phenylarsine oxide control, 1 = DMSO control)” is about 1, and the lowest 2% start at about 0.039. The list shows a part of the results.
System: NCI-H1944
Assay: normalised cell viability (NPI; 0 = phenylarsine oxide control, 1 = DMSO control) (fraction of DMSO control); NCI-H1944 is a non-small cell lung cancer line; higher = more viable cells (less compound toxicity)
Conditions: 6 days
[1] = glucocorticoid arm: hydrocortisone 2.75 uM co-treatment, compound 1 µM
[2] = glucocorticoid arm: hydrocortisone 2.75 uM co-treatment, compound 5 µM
[3] = glucocorticoid arm: hydrocortisone 2.75 uM pre-treated 2 days and continued, compound 1 µM
[4] = glucocorticoid arm: hydrocortisone 2.75 uM pre-treated 2 days and continued, compound 5 µM
[5] = glucocorticoid arm: vehicle, compound 1 µM
[6] = glucocorticoid arm: vehicle, compound 5 µM
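Note: CTB read-out in 384-well plates, mean of triplicate wells, normalised per plate against 1 µM phenylarsine oxide and 0.1% DMSO, compounds added 24 h after seeding.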

Structure (SMILES)	normalised cell viability [1]	normalised cell viability [2]	normalised cell viability [3]	normalised cell viability [4]	normalised cell viability [5]	normalised cell viability [6]
O=C1N=C(O)NC1(c1ccccc1)c1ccccc1 [Phenytoin sodium]	0.9917 ± 0.0093	0.953 ± 0.024	0.997 ± 0.0017	0.962 ± 0.021	0.9957 ± 0.0015	0.9883 ± 0.0042
CN(C)c1ccc(-c2nc3ncc(Cl)c(N4CCN(CC(=O)Nc5nccs5)CC4)c3[nH]2)cc1	0.921 ± 0.049	0.934 ± 0.03	0.947 ± 0.037	0.941 ± 0.02	0.957 ± 0.047	0.982 ± 0.024
Cc1nc2ccc(NC(=O)Nc3ccnc4cccnc34)cc2o1	1.01 ± 0.018	1.017 ± 0.0058	1.02 ± 0.015	1.001 ± 0.0081	1.007 ± 0.0058	0.993 ± 0.0066
COc1cc(/C=C(\C#N)C(=O)c2ccc(O)c(O)c2)cc(I)c1O [I-OMe-Tyrphostin AG 538]	0.9953 ± 0.0064	1.01 ± 0.01	1.01 ± 0.025	1.02 ± 0.02	0.998 ± 0.012	0.99 ± 0.0027
COc1ccc(CCc2nc3cc(-c4c(C)noc4C)ccc3n2C[C@H](C)N2CCOCC2)cc1Cl	0.989 ± 0.012	1.05 ± 0.01	0.967 ± 0.017	0.997 ± 0.02	1.01 ± 0.012	1.017 ± 0.0058
CNCc1ccc(-c2[nH]c3cc(F)cc4c3c2CCNC4=O)cc1	0.982 ± 0.0036	1 ± 0.071	0.968 ± 0.0095	1.01 ± 0.022	0.989 ± 0.013	0.948 ± 0.022
COc1ccc([C@@H]2Sc3ccccc3N(CCN(C)C)C(=O)[C@@H]2OC(C)=O)cc1 [Diltiazem hydrochloride]	0.9967 ± 0.0058	0.974 ± 0.026	0.988 ± 0.015	0.982 ± 0.011	0.9893 ± 0.0046	0.9893 ± 0.006
Cc1cn([C@H]2C[C@H](N=[N+]=[N-])[C@@H](CO)O2)c(=O)[nH]c1=O [3'-Azido-3'-deoxythymidine]	0.99 ± 0.011	0.994 ± 0.0056	0.9893 ± 0.0081	0.989 ± 0.016	0.983 ± 0.017	0.9757 ± 0.0064
CC(=N)NCc1cccc(CN)c1 [1400W dihydrochloride]	1.01 ± 0.011	1.02 ± 0.027	1.017 ± 0.0058	1.037 ± 0.0058	0.998 ± 0.0035	1.003 ± 0.0058
CC(C[N+](C)(C)C)OC(N)=O (configuration not stated) [Bethanechol chloride]	1.01		1.02 and 1.01		1.01	
Cc1c(NC(=O)OC[C@@H]2COCCN2)cn2ncnc(Nc3ccc4c(cnn4Cc4cccc(F)c4)c3)c12	0.92 ± 0.019	0.887 ± 0.015	0.932 ± 0.018	0.946 ± 0.016	0.925 ± 0.025	0.839 ± 0.02
Cc1ccc2nc(NCCN)c3ncc(C)n3c2c1	0.9797 ± 0.0068	0.887 ± 0.012	1 ± 0.016	0.862 ± 0.015	0.9963 ± 0.0035	0.9863 ± 0.0064
N[C@@H](Cc1c[nH]cn1)C(=O)O [L-Histidine hydrochloride]	1.017 ± 0.0058	0.996 ± 0.012	1 ± 0.014	1.02 ± 0.01	0.9973 ± 0.0038	0.9973 ± 0.0046
N=C(N)SCCc1ccc(CCSC(=N)N)cc1 [1,4-PBIT dihydrobromide]	0.956 ± 0.0085	1	0.992 ± 0.016	0.979 ± 0.015	0.9697 ± 0.004	0.9727 ± 0.0081
Cc1ccc(Sc2ccccc2N2CCNCC2)c(C)c1	1.013 ± 0.0058	0.9257 ± 0.0035	1.03 ± 0.021	0.986 ± 0.032	1.003 ± 0.0058	0.969
CN1CCC(CNc2ccc3ncc(-c4cccc(OC(F)(F)F)c4)n3n2)CC1 [SGI-1776 free base]	0.928 ± 0.019	0.601 ± 0.048	0.952 ± 0.014	0.718 ± 0.086	0.9658 ± 0.0071	0.534 ± 0.062
C[C@H](NC(=O)CCc1nc2ccccc2c(=O)[nH]1)c1ccccc1	0.9887 ± 0.0083	1.02 ± 0.017	0.973 ± 0.024	1.03 ± 0.017	1.003 ± 0.0058	1.01 ± 0.01
NCC(=O)CCC(=O)O [Aminolevulinic acid hydrochloride; Aminolevulinic acid]	1.04 ± 0.021	0.0671 ± 0.0064	1.023 ± 0.0058	0.486 ± 0.037	1.001 ± 0.0081	0.00332 ± 0.0013
COc1cc2c(cc1OC)[C@@H]1Cc3ccc(OC)c(OC)c3CN1CC2 [Rotundine]	0.9957 ± 0.0045	1.03 ± 0.017	1.002 ± 0.0068	1.04	1.007 ± 0.0058	1.002 ± 0.0068
O=C(CCCN1CCC(O)(c2ccc(Cl)cc2)CC1)c1ccc(F)cc1 [Haloperidol]	0.996 ± 0.013	0.93 ± 0.023	1.01	1.01 ± 0.025	0.9843 ± 0.0035	0.985 ± 0.002
O=c1[nH]c2cc(Cl)ccc2c(O)c1-c1cccc(Oc2ccccc2)c1	0.979 ± 0.02	0.978 ± 0.011	0.993 ± 0.028	1.02 ± 0.07	0.9737 ± 0.0021	0.991 ± 0.017
COC(=O)[C@@H](N)Cc1ccc(O)c(O)c1 [L-3,4-Dihydroxyphenylalanine methyl ester hydrochloride]	0.9923 ± 0.0086	0.973 ± 0.015	0.9893 ± 0.004	0.952 ± 0.012	0.9893 ± 0.0064	0.982 ± 0.0027
COc1ccc2c(c1)c(CC(=O)O)c(C)n2Cc1ccc(Cl)cc1 [1-(4-Chlorobenzyl)-5-methoxy-2-methylindole-3-acetic acid]	0.99 ± 0.011	1.02 ± 0.015	1.02 ± 0.01	1.01 ± 0.016	1.013 ± 0.0058	1.01
CC(N)(Cc1ccc(O)cc1)C(=O)O (racemic) [DL-alpha-Methyl-p-tyrosine]	0.994 ± 0.0053	0.9897 ± 0.0074	1.01 ± 0.011	0.992 ± 0.025	0.9957 ± 0.0045	0.9913 ± 0.0064
COc1cc(C(=O)NC2CCN(C)CC2)ccc1Nc1ncc2c(n1)N(C1CCCC1)CC(F)(F)C(=O)N2C	0.354 ± 0.024	0.359 ± 0.031	0.73 ± 0.022	0.7627 ± 0.007	0.066 ± 0.0089	0.0695 ± 0.004

Source: the supplement of paper PMC8285479
